# Results taken from PubChem BioAssay AID488969 (Vanderbilt High Throughput Screening Facility, 2010).
# Over roughly 110,000 compounds, “z-score” has its median near -0.1; the highest 2% begin near 2. Some of the results follow. Active and inactive are the calls of the source.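 Rule for the calls: active = z-score in the third read window above 3 or below -3; inactive = the rest.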
# Molecular target: Metabotropic glutamate receptor 8 (Rattus norvegicus) (UniProt P70579)
# Test: mGluR8 Gi/Go-coupled signaling modulation – cell-based, rat, thallium flux, HTS, primary screen (AID 488969)
# Conditions: HEK293 rat mGluR8, GIRK (G protein-gated inwardly rectifying potassium channel) thallium flux, FluoZin2; at 10 µM; stronger effect = higher value; submaximal glutamate (EC20) added with thallium
# Chain of UniProt P70579 (P70579 whole entry, looked up): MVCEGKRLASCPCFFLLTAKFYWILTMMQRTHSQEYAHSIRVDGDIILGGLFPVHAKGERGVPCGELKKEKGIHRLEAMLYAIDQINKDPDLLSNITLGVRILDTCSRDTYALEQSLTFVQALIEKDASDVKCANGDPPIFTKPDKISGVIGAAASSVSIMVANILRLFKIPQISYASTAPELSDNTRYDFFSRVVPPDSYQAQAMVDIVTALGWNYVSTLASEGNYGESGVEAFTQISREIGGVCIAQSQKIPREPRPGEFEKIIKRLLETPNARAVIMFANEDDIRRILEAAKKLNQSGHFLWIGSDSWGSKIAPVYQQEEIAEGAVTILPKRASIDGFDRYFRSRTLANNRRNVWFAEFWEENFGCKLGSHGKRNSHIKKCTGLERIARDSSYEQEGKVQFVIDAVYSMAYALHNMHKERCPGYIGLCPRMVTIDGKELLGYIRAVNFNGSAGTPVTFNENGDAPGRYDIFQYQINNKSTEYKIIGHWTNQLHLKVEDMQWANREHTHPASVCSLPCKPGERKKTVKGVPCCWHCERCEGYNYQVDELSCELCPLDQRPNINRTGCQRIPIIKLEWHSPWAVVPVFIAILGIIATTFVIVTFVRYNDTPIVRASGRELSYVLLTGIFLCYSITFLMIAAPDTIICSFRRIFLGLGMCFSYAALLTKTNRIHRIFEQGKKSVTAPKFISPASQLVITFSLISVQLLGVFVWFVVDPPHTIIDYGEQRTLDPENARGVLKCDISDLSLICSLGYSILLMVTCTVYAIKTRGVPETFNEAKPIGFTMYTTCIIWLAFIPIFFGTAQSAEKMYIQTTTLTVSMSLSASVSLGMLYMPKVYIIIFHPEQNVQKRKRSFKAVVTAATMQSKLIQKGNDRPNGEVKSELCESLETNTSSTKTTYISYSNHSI
row,SMILES,z-score
1,COc1cccc(OC)c1C(=O)Nn1c(-c2cccs2)nc2ccccc2c1=O,0.43
2,C=CCn1c(=O)c2c3c(sc2n2c(Nc4ccccc4)nnc12)CCCC3,-0.981
3,CSc1ccc(C#N)cc1NC(=O)c1ccc(Cl)cc1,-0.0404
4,COC(=O)c1sc(NC(=O)COc2ccccc2)nc1C,0.609
5,CC(C)(C)n1nnnc1C(c1ccncc1)N1CCN(c2ccc(O)cc2)CC1 (stereo unspecified),-0.311
6,CN1C2C=C3C(C#N)=C(N)C(C#N)(C#N)[C@H](c4c(F)cccc4F)[C@H]3C1CC2 (stereo partly specified),-0.484
7,CCOc1cc2[nH]c(=S)n(CCC(=O)NCc3ccc(OC)cc3)c(=O)c2cc1OCC,-0.239
8,Cc1ccc(NC(=O)c2ccco2)c(NC(=O)Cc2cccs2)c1,0.0723
9,O=C(NCc1ccc(F)cc1)c1cnc(-c2ccccn2)nc1C(F)(F)F,-0.0654
10,CCn1c2ccccc2c2cc(/C=N/n3cn[nH]c3=S)ccc21,active: 11.5
11,O=C1c2ccccc2C(=O)N1Nc1ccccc1,active: 4.88
12,CC(=O)N/C(=C/c1ccc(OC(F)F)cc1)C(=O)O,-0.292
13,O=C(c1ccc(O)cc1)c1ccc(Cl)cc1,-0.563
14,Cc1ccc(-c2nnn(CC(=O)N(c3ccc(F)cc3)C(C(=O)NC(C)(C)C)c3ccco3)n2)o1 (stereo unspecified),-0.139
15,CCOC(=O)C1=C(c2ccccc2)Nc2c(c(=O)n(C)c(=O)n2C)C1c1ccc(O)c(OC)c1 (stereo unspecified),0.108
16,Cc1ccc(NC(=O)CC(O)(C(F)(F)F)C(F)(F)F)cc1,-0.185
17,CCn1c(SCC(=O)Nc2ccc(S(=O)(=O)Nc3onc(C)c3C)cc2)nnc1-c1ccccc1,0.092
18,O=C(O)c1cn(-c2ccccc2)nc1-c1cccnc1,-0.52
19,CSc1cccc(NC(=O)C(C)Sc2ccc(C)cc2)c1 (stereo unspecified),0.067
20,O=C(COc1ncnc2sccc12)N1CCN(S(=O)(=O)c2ccc(Cl)cc2)CC1,-0.0233
21,COC(=O)Cc1c(C)nc2nc(NCc3c(F)cccc3Cl)[nH]n2c1=O,-0.831
22,Cc1nnc(SCCN2C(=O)c3ccccc3C2=O)[nH]c1=O,0.0812
23,CCCCNC(=S)N/N=C/c1ccc(C)s1,1.81

row,SMILES,z-score
1,Cc1ccc(C(NC(=O)N2CCCCC2)=C(Cl)Cl)cc1F,0.0818
2,CC(=O)N1CCN2C(=O)C1CCCC(=O)c1cc(C(C)C)ccc12 (stereo unspecified),0.766
3,CCOc1cccc(SCc2noc(C(=O)NCC3CCCO3)c2C(=O)O)c1 (stereo unspecified),-0.0276
4,C=CCN(CC=C)CC(O)CN(c1cc([N+](=O)[O-])ccc1OC)S(=O)(=O)c1ccccc1 (stereo unspecified),-0.218
5,O=C(Cn1c(=O)oc2ccccc21)Nc1ccc2c(c1)OCCO2,0.369
6,O=C1c2ccccc2C(Nc2ccc3c(c2)OCCO3)N1c1ccc(Cl)cn1 (stereo unspecified),-0.263
7,COc1cc(/C=N/N2C(=O)c3ccccc3C2=O)ccc1O,-0.113
8,Cn1nnc(NC(=S)NC(=O)c2cccs2)n1,-0.0472
9,CCN=C1S/C(=C\c2ccc(OCC)c(OC)c2)C(=O)N1CC,1.73
10,CC1=CC2(C#N)C3(N=C(N)C2(C#N)C(c2ccccc2)N1)OCCO3 (stereo unspecified),-0.201
11,Cc1cc(NC(=O)c2ccc(Cl)cc2)n(CCOC(=O)c2ccc(Cl)cc2)n1,-0.266
12,Cc1ccccc1NC(=S)N(CCN(C)C)C(C)c1ccccn1 (stereo unspecified),-0.425
13,CCSc1nnc(NC(=O)c2ccc(C)cc2)s1,0.629
14,CCOc1ccc(N2C(=O)CC(NCCc3ccncc3)C2=O)cc1 (stereo unspecified),-0.437
15,CCC(CC)C(=O)Nc1ccc(C)c(O)c1,0.0835
16,Cc1ccc2[nH]c(=O)c(-c3nc4ccccn4c3NCc3ccco3)cc2c1,-0.189
17,CCOC(=O)c1cnc(SC)nc1N,-0.0813
18,O=C(O)/C=C/c1cccc(NS(=O)(=O)c2ccccc2)c1,0.00724
19,CS(=O)(=O)N(CC(=O)NCC1CCCO1)c1cc(Cl)cc(Cl)c1 (stereo unspecified),-0.503
20,O=C(NCCCN1CCN(C2CCCCC2)CC1)Nc1ccccc1C(F)(F)F,-0.315
21,CC(C)(C)c1ccccc1OCCN1CCCC1,-0.516
22,O=C1c2ccccc2C(=O)N1OCCOCCOCCBr,-1.21
23,CCCCCOc1ccc2oc(=O)c3c(c2c1)CCCN3C(=O)CN1CCCC(C(=O)OCC)C1 (stereo unspecified),0.559

row,SMILES,z-score
1,Cc1ccc(Nc2nnc(SCn3nnc4ccccc4c3=O)s2)cc1,-0.0787
2,Clc1ccc(-c2nnc(-c3ccc(Br)cc3)c(N3CCSCC3)n2)cc1,-0.0652
3,COC(=O)c1ccc(C(C(=O)NCc2ccccc2)N(Cc2cccs2)C(=O)c2cnccn2)cc1 (stereo unspecified),-0.245
4,Cc1cccc(NC(=O)Nc2cc(C)on2)c1,-0.376
5,COC(=O)c1cc(CNC(=O)c2ccc(O)c(Cl)c2)ccc1OC,0.551
6,Cc1ccc(OCCC(=O)Nc2ccc(F)c(Cl)c2)cc1,0.781
7,CC1(CCc2ccccc2)NC(=O)N(Cc2nnc(-c3ccccc3Br)o2)C1=O (stereo unspecified),-0.897
8,N/C(=N\OC(=O)C(c1ccccc1)c1ccccc1)c1ccccn1,-0.438
9,C#CCSc1nnc(-c2cc3c(C(F)(F)F)nn(C)c3s2)n1C,-0.169
10,CC(C)Sc1oc(-c2ccco2)nc1S(=O)(=O)c1ccccc1,0.102
11,CN(C)c1ccc(/C=N/NC(=O)CN(c2ccccc2Cl)S(C)(=O)=O)cc1Br,-0.749
12,COC(=O)c1cccc(-n2nnnc2SCC(=O)Nc2cc(C)on2)c1,-0.135
13,Cc1ccc(NC(=S)NN(C)c2cc(C)nc(C)n2)cc1,-0.0375
14,Cc1csc(Sc2ccc(C(=O)OCC(=O)Nc3ccc(F)cc3[N+](=O)[O-])cc2[N+](=O)[O-])n1,-0.0883
15,Cc1ccccc1-c1noc(C23CC4CC(CC(C4)C2)C3)n1,-0.0538
16,CCCCCCCNC1=CC(=O)CC(c2ccccc2)C1 (stereo unspecified),-0.474
17,Brc1ccc2[nH]c3nc(SCCN4CCOCC4)nnc3c2c1,0.137
18,Cc1[nH]nc2ncc(C(=O)c3ccccc3O)cc12,0.534
19,C=CCn1c(SCC(=O)NCc2ccccc2)nnc1C1CCCCC1,0.0533
20,O=C(Oc1ccc(Cl)c2cccnc12)N1CCOCC1,-1.2
21,Cc1nc2nc(C)c(CCC(=O)O)c(C)n2n1,0.347
22,Cc1ccc(C(=O)CN(C(=O)c2ccc(Cl)c(Cl)c2)N2C(=O)C3C4C=CC(C4)C3C2=O)cc1 (stereo unspecified),0.233
23,c1nc(N2CCC3(CC2)OCCO3)c2c3c(sc2n1)CCCC3,-1.04

row,SMILES,z-score
1,COc1ccc(-n2c(Cn3c(=O)sc4ccccc43)nnc2SCC(N)=O)cc1,0.0744
2,CCC(C)[C@H](NC(=O)Nc1ccc(Oc2ccccc2)cc1)C(=O)O (stereo partly specified),-0.551
3,O=C(Cc1ccc(Br)cc1)N1CCN(c2ccc(F)cc2)CC1,-0.157
4,Cc1ccccc1-n1nnnc1SCc1ncc(-c2ccccc2)o1,-0.396
5,Cn1c(=O)[nH]c(=O)c2c1nc(N1CCCCCC1)n2CCN1CCCCCC1,0.145
6,Cc1csc(SCC(=O)Nc2sc3c(c2C#N)CCC3)n1,-0.735
7,O=C(NCCCCNC(=O)c1ccc(Cl)s1)c1ccc(Cl)s1,-0.423
8,O=C(CN1CCN(CC(=O)Nc2ccc(OCc3ccccc3)cc2)CC1)Nc1ccc(F)cc1,-0.194
9,COCCN1C(=O)c2ccccc2C(C(=O)Nc2ccc3c(c2)OCCO3)C1c1ccc(F)cc1 (stereo unspecified),-0.449
10,O=C(CN(CC1CCCO1)C(=O)CCC(=O)Nc1nccs1)NCc1ccccc1 (stereo unspecified),0.199
11,Cc1ccc(C(=O)N/N=C/c2cc(C)n(-c3ccc(Br)cc3)c2C)cc1[N+](=O)[O-],-0.519
12,CCOC(=O)C1=NN(c2ccccc2)C(=O)/C1=C\c1ccc(N(C)C)cc1,-1.66
13,CCN1/C(=C/c2cc[n+](C)cc2)C=Cc2cc(C)ccc21,-0.153
14,CCCCNC(=O)NC1(C(F)(F)F)Oc2ccccc2O1,-0.407
15,Cc1ccc(CNc2oc(-c3ccco3)nc2C#N)cc1,-0.32
16,C=CCN(CC(=O)NCc1ccccc1)C(=O)c1csnn1,-0.525
17,CCc1ccc(Nc2nnc(SCC(=O)N(C)CC(=O)Nc3ccccc3CC)s2)cc1,-0.439
18,O=C1CCC(/C=C/c2ccccc2)=NN1Cc1ccc(Cl)c(Cl)c1,active: 13.4
19,Cc1cc(C)cc(OCC(=O)OCC(=O)NCc2ccco2)c1,-0.631
20,COc1ccc(NC(=S)NCCN2CCOCC2)c(OC)c1,0.0468
21,Clc1ccc(-c2nnc(CNC3CC3)o2)cc1,0.504
22,CCc1c(C)c2c(C)nn(-c3ccccc3)c2oc1=O,-0.423
23,COc1ccc(Cn2ccnc2)cc1[N+](=O)[O-],-0.267

row,SMILES,z-score
1,COc1ccc(C2CC(=O)C3=C(C2)Nc2ccccc2N(C(=O)C2CC2)C3c2cccnc2)cc1OC (stereo unspecified),-0.607
2,OCc1ccccc1NC(=S)Nc1cccnc1,0.0937
3,CC(C)(C)C(=O)CC1(O)C(=O)N(Cc2ccc(Cl)cc2)c2ccccc21 (stereo unspecified),-0.062
4,O=C(NCc1ccc(F)cc1)c1cnc2n(c1=O)CCS2,2.18
5,S=C(NCCc1ccccc1)N/N=C/c1c(Cl)cccc1Cl,0.353
6,Cc1occc1C(=O)N1CCN(C(c2ccccc2)c2ccccc2)CC1,-0.0444
7,CCC(Sc1nc(-c2ccccc2)cc(=O)[nH]1)C(=O)O (stereo unspecified),0.104
8,CCOc1ccc(CC(=O)Nc2c(C(=O)Nc3ccccc3)oc3ccccc23)cc1OCC,-0.0815
9,Cc1oc2cc3c(C(=O)N4CCCCC4)c(C)oc3cc2c1C(=O)N1CCCCC1,0.496
10,C=CCSc1nccc(=O)[nH]1,-0.329
11,CCCC(C)NCC(=O)Nc1ccccc1-c1ccccc1 (stereo unspecified),0.0667
12,COc1ccccc1N1CCN(CC(O)COc2ccc3c(C)cc(=O)oc3c2)CC1 (stereo unspecified),-0.382
13,COc1cc2c3c(c1OC)C1(C=CC(=O)C=C1)CC3N(C(=O)c1ccccc1)CC2 (stereo unspecified),-0.202
14,COc1cccc(NC(=O)CSc2nc(N)cc(N)n2)c1,active: 3.37
15,O=C(NN=C1CCN(Cc2ccccc2)CC1)c1ccccc1,-0.391
16,Cc1ccc(NC(=O)CSc2n[nH]c(C)c2[N+](=O)[O-])cc1C,-0.251
17,CC(C)(C)c1cc(=O)n2c(nc3ccccc32)[nH]1,-0.318
18,CCOC(=O)Cc1csc(N/C(=N/S(=O)(=O)c2cc(Br)ccc2OCC)c2ccccc2)n1,-0.276
19,Cc1ccc(Cn2c(SCCN3CCCCC3)nc3c2c(=O)[nH]c(=O)n3C)cc1,-0.062
